Source: publication PMC4336329 (PLoS ONE, 2015)
The campaign covered roughly 310,000 compounds. About 2,200 (0.71%) showed an effect of 50% or more. Effects have a minus sign here. This is one part of the list.

Target: human ether-à-go-go-related gene (hERG) potassium channel (human, UniProt Q12809)
Assay: primary screen, population patch clamp on CHO cells stably expressing hERG

Chain of human ether-à-go-go-related gene (hERG) potassium channel (Q12809 whole entry, looked up): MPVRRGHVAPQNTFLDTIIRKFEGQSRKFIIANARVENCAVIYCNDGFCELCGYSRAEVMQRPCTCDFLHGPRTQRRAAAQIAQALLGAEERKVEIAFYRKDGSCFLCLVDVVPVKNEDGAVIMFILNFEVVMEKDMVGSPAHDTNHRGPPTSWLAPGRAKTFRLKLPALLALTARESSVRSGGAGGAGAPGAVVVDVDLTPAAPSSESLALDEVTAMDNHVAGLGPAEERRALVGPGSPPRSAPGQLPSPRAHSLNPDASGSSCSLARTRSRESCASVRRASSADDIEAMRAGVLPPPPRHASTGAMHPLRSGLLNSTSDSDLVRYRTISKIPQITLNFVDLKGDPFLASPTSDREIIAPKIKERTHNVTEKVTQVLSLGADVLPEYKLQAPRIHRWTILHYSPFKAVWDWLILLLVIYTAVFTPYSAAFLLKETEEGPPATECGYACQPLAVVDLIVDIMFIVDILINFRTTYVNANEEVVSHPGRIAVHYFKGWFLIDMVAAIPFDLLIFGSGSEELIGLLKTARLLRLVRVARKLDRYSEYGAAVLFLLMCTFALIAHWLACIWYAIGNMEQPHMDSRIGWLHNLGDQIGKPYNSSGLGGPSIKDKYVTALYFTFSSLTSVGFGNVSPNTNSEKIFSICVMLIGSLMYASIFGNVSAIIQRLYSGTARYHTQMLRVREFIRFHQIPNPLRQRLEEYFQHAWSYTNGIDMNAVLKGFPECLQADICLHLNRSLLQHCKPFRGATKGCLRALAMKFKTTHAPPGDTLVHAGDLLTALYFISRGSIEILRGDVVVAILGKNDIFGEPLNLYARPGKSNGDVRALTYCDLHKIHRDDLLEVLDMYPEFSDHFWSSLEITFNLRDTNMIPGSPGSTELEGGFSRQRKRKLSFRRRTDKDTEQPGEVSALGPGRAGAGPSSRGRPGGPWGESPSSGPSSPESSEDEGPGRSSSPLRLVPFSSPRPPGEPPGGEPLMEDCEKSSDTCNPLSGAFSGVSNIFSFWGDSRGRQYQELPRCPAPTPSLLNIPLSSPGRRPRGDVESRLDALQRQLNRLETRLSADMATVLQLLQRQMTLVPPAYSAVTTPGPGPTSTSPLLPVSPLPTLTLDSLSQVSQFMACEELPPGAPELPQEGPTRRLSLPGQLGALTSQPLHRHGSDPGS

SMILES | hERG current change (%, negative = inhibition) at 1uM
C[C@@H](C(=O)N1CCN(C(=O)OC(C)(C)C)CC1)n1cc(CCC(=O)O)nn1 | 16.5%
O=C(Cc1ccccc1)NCCSCc1ccc(Cl)cc1 | 2%
COc1ccc(Cc2nnc(NC(=O)c3ccc(OC(C)=O)cc3)s2)cc1OC | 14.2%
O=C(O)Cn1cc(F)c(=O)[nH]c1=O | 6.96%
N#C/C(=C\c1ccc[nH]1)C(=O)NC1CC1 | 8.93%
COCCN(C(=O)CSc1nnc(-c2ccc(C)cc2)n1N)c1c(N)n(Cc2ccccc2)c(=O)[nH]c1=O | 20.8%
CCc1nc(N2CCCC2)c(C#N)c2c1CCCC2 | 10.1%
N/C(=N\OC(=O)COc1ccccc1)c1ccccn1 | 10.1%
O=C(Cn1ccc2ccccc2c1=O)NCC(=O)N1CCC2(CC1)OCCO2 | 14.7%
O=C(C#Cc1cccc([N+](=O)[O-])c1)c1ccccc1 | 17.6%
COC(=O)c1sccc1NC(=O)C1CCCCC1C(=O)O (stereo not drawn) | 13.9%
Cc1ccc(NC(=O)Cn2ccc([N+](=O)[O-])n2)cc1Cl | 1.29%
N/C(=N\OC(=O)CC1CCCCC1)c1ccccn1 | 6.05%
COc1ccc(C(F)(F)F)cc1N/C=C\c1nnnn1-c1ccc(C)cc1 | -2.43%
C(=N\n1cnnc1)/c1ccc2c(c1)OCCO2 | 7.76%
O=C(CSc1cc(Cl)ccc1Cl)NCC(=O)Nc1ccc(F)c(F)c1F | 7.46%
Cc1cc(SC2CCOC2=O)nc2ccccc12 (stereo not drawn) | 10.8%
N#CCCCCN1c2cccc3cccc(c23)S1(=O)=O | 11.5%
Cn1c(=O)c(=O)n(C)c2cc(S(=O)(=O)N3CCCC3C(=O)NCc3cccs3)ccc21 (stereo not drawn) | 12.6%
Cc1cccc2c3c([nH]c12)CCN(C)C3 | 4.68%
Clc1cccc(Cl)c1CO/N=C/c1c(-c2ccccc2)nc2n1CCS2 | 7.73%
COc1cc(OC)c(/C=N/NC(=O)c2ccncc2)c(OC)c1 | 13.6%
C#Cc1ccc([C@H]2C=C(C(=O)OCC=C)O[C@@H](OCC)[C@@H]2CCCO)cc1 | 13%

SMILES | hERG current change (%, negative = inhibition) at 1uM
CC(C)c1nnc(NC(=O)CCC(=O)NC2CCCCCC2)s1 | 9.93%
Cc1ccc(C(=O)NNc2ncnc3c2cnn3C)cc1 | 15.1%
CCc1[nH]nc2c1C1(C(=O)N(Cc3ccccc3)c3ccccc31)C(C#N)=C(N)O2 (stereo not drawn) | 15.5%
COc1ccc(-c2csc(Nc3ccc(C)cn3)n2)cc1 | 6.34%
Nc1cc(=O)[nH]c(SCC(=O)N2CCCc3ccccc32)n1 | 7.38%
CCc1ccc(/C([O-])=C(/C(=S)NCCN2CCOCC2)[n+]2ccccc2)cc1 | 6.2%
COc1ccccc1C(=O)NNC(=O)C(=O)N1CCCCC1 | 12.4%
Fc1cnc(N/N=C/c2ccc(-c3ccc(Br)cc3)o2)nc1N1CCOCC1 | 16.7%
CC(C)Oc1cccc(C(=O)N/N=C/c2coc3ccccc3c2=O)c1 | 9.98%
CCOC(=O)N1CCN(C(=O)C2CCN(Cc3cccc(OCc4ccccc4)c3)CC2)CC1.O=C(O)C(=O)O | 4.61%
COC(=O)C(C(=O)OC)C(C[N+](=O)[O-])c1ccc(OC)c(OC)c1 (stereo not drawn) | -8.09%
CCOc1ccc2nc(COC(=O)c3cccc([N+](=O)[O-])c3)c(C(C)=O)[n+]([O-])c2c1 | 15.3%
C/C(=N/NC(N)=S)c1cc2ccc(O)cc2oc1=O | 6.01%
COc1ccc(NCc2cc(=O)oc3cc(NC(C)=O)ccc23)cc1 | 9.67%
COc1ccc(C)cc1S(=O)(=O)Nc1cccc(C)c1 | 6.42%
Cc1ccc(Oc2ncnc(N)c2[N+](=O)[O-])cc1 | 9.92%
COC(=O)c1cc(C(=O)OCC(=O)NC(=O)NCc2ccccc2)cc([N+](=O)[O-])c1 | 11.1%
O=C(NCCN1CCN(Cc2ccccc2)CC1)C1c2ccccc2C(=O)N2CCc3ccccc3C12 (stereo not drawn) | 9.42%
COC(=O)c1cc(NC(=O)c2cc(-c3ccccc3Cl)oc2C(F)(F)F)ccc1N1CCOCC1 | 13.7%
Cc1cccc(C)c1OCC(=O)N/N=C/c1ccc2c(c1)OCO2 | 7.97%
CCOC(=O)c1cnc(SC)nc1N1CCCC1 | 8.81%
CCC(=O)N1CCc2cc(S(=O)(=O)NCCC(=O)N3CCN(c4ccccc4)CC3)ccc21 | 18.7%
C=C(C)c1cccc(C(C)(C)NC(=O)N2CCN(c3ccccc3)CC2)c1 | 11.6%

SMILES | hERG current change (%, negative = inhibition) at 1uM
COc1ccc(OCC(=O)Nc2ccc(NC(=O)c3ccco3)cc2)cc1 | 6.97%
CCN(CC)c1ccc(CNCc2cccs2)cc1.Cl | 8.89%
CCc1nc(SCC(=O)N2CCOCC2)c2c(=O)n(C)c(=O)n(C)c2n1 | -1.43%
O=c1[nH]c(SCc2cccc(Cl)c2)nc2ccccc12 | 3.9%
CCOc1ccc(S(=O)(=O)/N=C(\N)c2ccccc2)cc1 | 7.8%
CCc1nnc(NS(=O)(=O)c2ccc(NCc3cc(Br)ccc3O)cc2)s1 | 5.5%
O=C(c1ccc(Cl)cc1)C1CCCN(Cc2cnn(-c3ccccc3)c2)C1 (stereo not drawn) | -23.9%
COCCCN(C(=O)CSCc1ccc(C)cc1)c1c(N)n(Cc2ccccc2)c(=O)[nH]c1=O | 8.74%
Nc1cc(N)nc(SCC(=O)N2CCN(C(=O)c3ccco3)CC2)n1 | 0.379%
O=C(CCC(=O)N1CCOc2ccccc21)NCCCN1CCN(Cc2ccccc2)CC1 | -41.9%
Cc1nc(C(=O)NNC(=O)c2cccc(Cl)c2)c(C(F)(F)F)o1 | 12.6%
O=[N+]([O-])c1ccc(F)cc1Oc1nc(-c2cccnc2)nc2ccccc12 | 10.7%
OC(CN1CCC(Cc2ccccc2)CC1)C(F)(F)F (stereo not drawn) | 6.98%
O=C1O[C@H]([C@@H](O)CO)C(O)=C1O | 12.2%
Cc1ccc(C)c(NS(=O)(=O)c2cc(C(=O)Nc3ccccc3-c3ccccc3)ccc2Cl)c1 | 7.69%
CC1CCN(C(=O)/C(=C\c2cccs2)NC(=O)c2ccccc2)CC1 | -0.7%
Cc1cc(NC(=O)C(C)SCC(=O)OC(C)C(=O)Nc2ccccc2C)no1 (stereo not drawn) | 9.36%
CCOC(=O)CN1C(=O)CN(c2ccc(C)c(C)c2)C1=O | 7.26%
O=C(c1cc(COc2ccc(F)c(F)c2)on1)N1CCSCC1 | -4.71%
Cc1cc(-c2ccccc2)c(C#N)c(=S)[nH]1 | 13.3%
COC(=O)Nc1ncc(CN2CCCCC2)s1 | 8.18%
Cc1ccc(NC(=O)CCC(=O)NNC(=O)Nc2cccc(Cl)c2)c(C)c1 | 3.3%
O=c1[nH]cnc2c1cnn2Cc1ccccc1Cl | 15.1%

SMILES | hERG current change (%, negative = inhibition) at 1uM
O=C(CN1C(=O)c2ccccc2S1(=O)=O)c1ccc2c(c1)OCCCO2 | 8.94%
CC(C)(C)n1nc2c(c1NC(=O)Cc1cccc3ccccc13)CS(=O)C2 (stereo not drawn) | 8.29%
C1CN(c2nc(N3CCOCC3)nc(N3CCOCC3)n2)CCO1 | 6.06%
O=[N+]([O-])c1cccc(S(=O)(=O)N2CCC(c3nc(-c4ccncc4)no3)CC2)c1 | 4.01%
NC(=S)N/N=C\c1ccccc1OCc1ccccc1 | 5.58%
COc1ccc([N+](=O)[O-])cc1NC(=O)C(C)Sc1ccc(C)cc1 (stereo not drawn) | 13.5%
COc1ccc(N(C(=O)c2ccncc2)S(=O)(=O)c2ccc(OC)c(OC)c2)cc1 | -1.41%
O=C(NCc1cccs1)c1ccc(Cl)c(S(=O)(=O)N2CCCC2)c1 | 2.49%
CC1CCCCN1C(=S)NCc1ccccc1 (stereo not drawn) | 7.17%
CCOc1ccc(Cl)cc1S(=O)(=O)N1CCC(C(=O)NC2CC2)CC1 | 5.07%
CCCS(=O)(=O)Nc1cccc(-c2ccc3nnc(C)n3n2)c1 | 2.58%
CC(=O)Nn1cnc2c(c1=O)C1(CCCC1)Cc1ccccc1-2 | 6.56%
CCN(Cc1ccccc1)C(=O)c1cccc(S(=O)(=O)N2CCN(Cc3ccccc3)CC2)c1 | 8.93%
O=C(O)CSCC(=O)NCc1ccc(Cl)cc1 | 0.953%
OCCCc1nc2ccccc2n1Cc1ccccc1 | 13.3%
Cc1nc2c(cnn2-c2ccccc2)c(=O)n1/N=C/c1ccccc1 | 7.36%
O=C(Cn1cnc2c(oc3ccccc32)c1=O)N1CCN(c2ccccc2)CC1 | 8.58%
CCCCOc1cccc(C(=O)Nc2ccc(NC(=O)c3ccco3)cc2)c1 | 7.64%
COc1cc(NC(=S)NNC(=O)C(C)(C)O)cc(OC)c1 | 14%
CCOC(=O)c1n[nH]c(=O)c2ccccc12 | 11.3%
COc1cc(-n2c(=O)c3ccccc3n(Cc3cc(=O)n4ccccc4n3)c2=O)cc(OC)c1OC | 0.889%
